Laboratory results published in the RNAGym collection of RNA variant scans (doi:10.1073/pnas.2313332121).
Variants at the background level are over-represented here.

B1: TPR 5TU (parent)
chain: GGAUCUUCUCGAUCUAACAAAAAAGACAAAUCUGCCACAAAGCUUGAGAGCAUCUUCGGAUGCAGAGGCGGCAGCCUUCGGUGGCGCGAUAGCGCCAACGUUCUCAACUAUGACACGCAAAACGCGUGCUCCGUUGAAUGGAGUUUAUCAUG

Variants of: B1
Assay: polymerase ribozyme fitness, log enrichment relative to wild type (log ratio); higher = more active; in vitro selection for triplet polymerase activity
Summary of the method: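 Mutant libraries for each subunit of a heterodimeric triplet polymerase ribozyme were made by PCR and then transcribed. Each library underwent one round of in vitro selection in triplicate: annealing with a biotinylated primer, the partner subunit and triplets, frozen incubation at −7 °C, gel excision of extended constructs, streptavidin-bead capture and RT-PCR. Input and output libraries were Illumina-sequenced, and only genotypes with ≥10 input reads and ≥1 read per output were kept. Fitness is the logarithm, base 2, of genotype enrichment over wild-type enrichment, computed from inverse-variance-weighted replicate averages.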

Variant	polymerase ribozyme fitness (log ratio)
C5A A28U U55A C57G C96U G141U	≤ -4.2
C5A A29C G42A C79G C87U C103A U111C C114G G136U	≤ -4.2
C5A A30G C57A C95G A106G	≤ -4.2
C5A A37U C51U U56A C79A C96G C116G G133C	≤ -4.2
C5A A40C G50U C57U G81C C95A U104G C116G G133A	≤ -4.2
C5A A40G C87U	-2.81
C5A A41G G58A A60C G84A A106U C131U U146A	-3.76
C5A A47U G84A G124U	-1.14
C5A A49U C51U A52C A64C G94A A121G	≤ -4.2
C5A A49U C57A	-0.832
C5A A52C G80C G83U	≤ -4.2
C5A A60G	0.956
C5A C8G A19C G42C U45G C87G	≤ -4.2
C5A C8U A19U G50C C76A C93U C105U C116G C149U	≤ -4.2
C5A C14A C72U G88U C103U	≤ -4.2
C5A C14G A20G A30U G42A A64C G68C G84A U144A	≤ -4.2
C5A C32G C57U U61A U82C G84C C103G U127A	≤ -4.2
C5A C35A U61A G71C C79G C93U G140A G143U	≤ -4.2
C5A C54U C87U U148C	-2.76
C5A C69A G84A U104G C125U G126A A142C	≤ -4.2
C5A C76A C85G G133C	-2.61
C5A C85U	-0.371
C5A C85U G86C A119C A120C	-3.07
C5A C87G A138G	≤ -4.2

Variant	polymerase ribozyme fitness (log ratio)
C5A C87U C129A	-3.51
C5A G11U A73G U82A G94C G143A	≤ -4.2
C5A G34A A41C U82C C87G A91C C93U	≤ -4.2
C5A G42A C54A U61G G92U C149A	≤ -4.2
C5A G50A C87A A107G	≤ -4.2
C5A G80C C96G C105U	≤ -4.2
C5A G81A	0.566
C5A G81U C85G C99U U134A	-4.04
C5A G86C G92U	-3.93
C5A G92A U104G A120U C123A U130G	≤ -4.2
C5A U6A G94U C123U U148G	≤ -4.2
C5A U6C A21C A23C G48U G59C A64U G67A A73G C79G G81C C95G G100C G112U U145A	≤ -4.2
C5A U7C C18G U55A G58A A89C	-1.54
C5A U7G C32U G80C C87G C149G	≤ -4.2
C5A U9G A73G C87U A120U C123U A147G	-3.95
C5A U13G C27A G34A G42C C96A	≤ -4.2
C5A U15C A40G U45A C76U G83A A142C	≤ -4.2
C5A U31G A40G G74A C85A A97U U101C C118U	≤ -4.2
C5A U53A C54U U77A C93U G133C G140C	≤ -4.2
C5G A12C C51U C57U C95U C99A C105U U144A A150G	≤ -4.2
C5G A12G A22U C38A U44G C75A C79U C93A G133U	≤ -4.2
C5G A12U C57G G58A G74U C75U C105U A147U	≤ -4.2
C5G A12U U31A A41U C54U U56A G88A U127C A137C G141A	≤ -4.2
C5G A17C A40C A52C C79G A142U U144A C149A	≤ -4.2

Variant	polymerase ribozyme fitness (log ratio)
C5G A17G	-0.0409
C5G A17G A20U C57U A66U G86C A107G C108A	≤ -4.2
C5G A17U A29U C72U U139C G143A	≤ -4.2
C5G A19C G50C U134C	≤ -4.2
C5G A19G A29C A39C U145C	≤ -4.2
C5G A19G C32A G59C G62C C72A G81U C95A C114U	≤ -4.2
C5G A19U C85G A91G G94A C99U C123A	≤ -4.2
C5G A21C A22U A107C	≤ -4.2
C5G A21G U61G C79A C87G	≤ -4.2
C5G A21U C35U A91G G94A C114U G136A	≤ -4.2
C5G A21U U31A G65C C69G A91C G92C G126U A138G	≤ -4.2
C5G A22C C32G G81U G92U C108U U135A G143U	≤ -4.2
C5G A24U U78C G84C A113U A150C	≤ -4.2
C5G A26C C87A G88A U102G C114G	≤ -4.2
C5G A28G A30C C36U A47U C57U C85A A91U C118U A120G C125G A142G	≤ -4.2
C5G A28G G48C G83C U104G G133U	≤ -4.2
C5G A28U U31G C51U C85U	≤ -4.2
C5G A29G G42A G80C C85G A106C U144A	≤ -4.2
C5G A29G U33G A39C C85G G86U C99A	≤ -4.2
C5G A29U G42A C79A G94C A97U C103A U151C	≤ -4.2
C5G A30C C108A G141U	≤ -4.2
C5G A30G G88C	≤ -4.2
C5G A39C C87A G126A G136C	≤ -4.2
C5G A39U C79U G94C	≤ -4.2

Variant	polymerase ribozyme fitness (log ratio)
C5G A40G U55A A66U U82A G83C C95G G141A	≤ -4.2
C5G A40U A91U U144C	≤ -4.2
C5G A41G C85U C95U A122U C132A	-3.5
C5G A41U A49C U77G C95U C114U C132U	≤ -4.2
C5G A41U G59C G84A	-2.99
C5G A52G G83C C93U	-3.55
C5G A60G G68C C85A A106U A122U G128A A147U	≤ -4.2
C5G A91C A142C	≤ -4.2
C5G C8A U13G G74C C99G A147U	≤ -4.2
C5G C8G C18U A26U A30C G46A U56G C87G C93U C95U	≤ -4.2
C5G C8G U55C C76G G92A C114G A115U	≤ -4.2
C5G C8U C18U A22U A24U A26C C99G A115C A150G	≤ -4.2
C5G C10G G42C C54U U56A U82C C85G C116U	≤ -4.2
C5G C14G A41C G48C G126A G140A	≤ -4.2
C5G C14G C96A	-2.31
C5G C14G G25U C54A G92A	≤ -4.2
C5G C18U A21C G86A C105A C123G	≤ -4.2
C5G C18U A30U U61C C85A	≤ -4.2
C5G C35U A52C G59C A106G C108A C114U A119U A122U G133U	≤ -4.2
C5G C35U G50A U55A C57A A66C C87A U134C	≤ -4.2
C5G C36U C96G	-2.51
C5G C38A A39C A60U A73G G94U U104A A138U	≤ -4.2
C5G C43U C54U U61A A64C G84U U127A C131G A142G	≤ -4.2
C5G C54G G84U A107U U146A	≤ -4.2

Variant	polymerase ribozyme fitness (log ratio)
C5G C54U U56A C99U	-1.99
C5G C75U G86C U151A	≤ -4.2
C5G C85A C87U G88C A110U C116A U135C	≤ -4.2
C5G C85U A120U G152U	≤ -4.2
C5G C87A	≤ -4.2
C5G C93A C99G C118A C132U U134G G143C	≤ -4.2
C5G C96A G117A	-0.406
C5G G25C U56A C79A U90C C99U C125U G143U	≤ -4.2
C5G G42A A60G U61A C93U C95G A119C G141A	≤ -4.2
C5G G46A C54U G83U C85G	≤ -4.2
C5G G50A C87U C103G U111C C132U	≤ -4.2
C5G G50C C96U C103G C132A C149G	≤ -4.2
C5G G50U A66U A73G C87A G143C	≤ -4.2
C5G G59C C85A C93G C131U G140C U151C G152U	≤ -4.2
C5G G68U U77C C85U G128U U130C	≤ -4.2
C5G G71U	-3.09
C5G G83A C85A C129G A150G	≤ -4.2
C5G G92A C96A	-3.11
C5G U6A C79U U90G A91G	≤ -4.2
C5G U6C C14G A22U A49U G50C G84C G92U C125G C132A G133U U144C	≤ -4.2
C5G U6C C35G A49C U82A	≤ -4.2
C5G U6C G50A	-2.74
C5G U6G C38U A41U A47U G86A A91C	≤ -4.2
C5G U7C A12G C14G C27U G67U G68A G83U	≤ -4.2

Variant	polymerase ribozyme fitness (log ratio)
C5G U7C A22C A24U U78G C87U U109G A142C	≤ -4.2
C5G U9G A21U C43U G152A	≤ -4.2
C5G U9G A41U A47G G68A G88C	≤ -4.2
C5G U9G C10A A49C U77G C87A C95U A113C U139G A142U U144A	≤ -4.2
C5G U9G G80C C96U C105A A150G	≤ -4.2
C5G U13C A17C G83U U134C A137C	≤ -4.2
C5G U15A A41C A64C	≤ -4.2
C5G U15G A19G A23U C103G G124A C131A	≤ -4.2
C5G U15G A52G	-1.06
C5G U15G A73C G92A	≤ -4.2
C5G U33C A52C C96A G133U A150U	≤ -4.2
C5G U33G G48U C85A U139C A142G	≤ -4.2
C5G U44A	≤ -4.2
C5G U44C G58C C85A G141A	≤ -4.2
C5G U45A U61A C75G A150U	≤ -4.2
C5G U53A G92C A137G	≤ -4.2
C5G U53G C57A G80C A91U U144C	≤ -4.2
C5G U56G C96A C118U A137U G140C G141C	≤ -4.2
C5G U56G G84A A107C	≤ -4.2
C5G U78A A91U G152C	≤ -4.2
C5U A12U G84U	-1.92
C5U A16G C27G A64U C116U	≤ -4.2
C5U A16G C93A C125U A137U	≤ -4.2
C5U A16G G42U G86A A89G A137G	≤ -4.2

Variant	polymerase ribozyme fitness (log ratio)
C5U A16U U53C G86U C114G C118A U130G	≤ -4.2
C5U A19C A39C U56C G59A C79A	≤ -4.2
C5U A19G A23G G58U G81A G94C C116A C129U U135C U146G	≤ -4.2
C5U A19G C57U G84U G117U A120U	-2.48
C5U A20C A29G A115C U130G C132U U146C	≤ -4.2
C5U A21U U44G A52C U55A G84U	≤ -4.2
C5U A22C A40U G58A G92A U139A G152U	≤ -4.2
C5U A23G A47U G48U A91C G126U	≤ -4.2
C5U A23U U56A C85U U102G C118U U148G	≤ -4.2
C5U A24C C54U G58C C87G A89C A91U U111C	≤ -4.2
C5U A28C U56A U77C G94A	≤ -4.2
C5U A28U C38A U55G U56A A73U	≤ -4.2
C5U A29U G62A G67C A142U	≤ -4.2
C5U A39U G62A C79G	≤ -4.2
C5U A40C U53A C87G A89U	≤ -4.2
C5U A40G G84A A97G	-3.39
C5U A41U G68A G94A C99G U102G A115G	≤ -4.2
C5U A41U G81A G84C C85A C96U G126A	≤ -4.2
C5U A41U U45A G67U C75G U102G U111G A122C	≤ -4.2
C5U A49U G81A C96G C132G	≤ -4.2
C5U A52G A60U C93A G126A	≤ -4.2
C5U A73U G83A	-0.929
C5U A121G G133U G141U	≤ -4.2
